# Measured values as given in PubChem BioAssay AID1347073 (National Center for Advancing Translational Sciences (NCATS), 2019).
# The whole screen tested about 45,000 compounds, of which about 200 (0.44%) were called active. About 7% were inconclusive and are not listed. Calls come from the whole dose curve; as a rule, active = well fitted activation curve with a large enough effect; inconclusive = small, poorly fitted or top-dose-only effect; inactive = no such curve, though single readings can be large or run the other way. The list shows a part of the results.
# Assay: qHTS of TDP-43 Inhibitors: NCGC Sytravon Library Screen; note: nearly all actives have a fitted effect of over 55% in size; for growth rescue (activation): 0% is about no effect
# Conditions: yeast TDP-43 toxicity rescue, BacTiter-Glo growth, 24 h; series mostly up to 46.1 µM; growth rescue (activation): at the top concentration
# Outline: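 TDP-43-expressing yeast, pregrown in raffinose, seeded at OD600 0.02 in galactose medium with compound for 24 hr at 30 deg C. Growth read by BacTiter-Glo luminescence, so rescue of toxicity appears as activation.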
# Potency is the fitted concentration of half-maximal effect.
Compound,growth rescue (activation),Potency
Cc1cc(NC(=O)C(C)SCC(=O)N(C)Cc2c(F)cccc2Cl)no1 (stereo unspecified),inactive: 24.7%,–
COc1cccc(-c2ccc3c(c2)N(Cc2ccc(F)cc2)C(=O)C(C)S3)c1 (stereo unspecified),inactive: 5.17%,–
Cc1cc(C)nc(SCC(=O)Nc2ccc(S(=O)(=O)Nc3ncccn3)cc2)n1,inactive: 1.26%,–
C=CCN1C(=O)C(CC(=O)Nc2ccccc2)S/C1=N/c1nccs1 (stereo unspecified),inactive: -13.5%,–
CCC(C)(C)NC(=O)CN(C(=O)C(=O)Nc1ccc2c(c1)OCCO2)N1CCOCC1,inactive: -23.8%,–
N/C(=N\OC(=O)CCCOc1ccccc1)c1ccncc1,inactive: 17.3%,–
Cc1cc(C)cc(C(=O)NCC(=O)OCC(=O)c2cc(C)n(CC(F)(F)F)c2C)c1,inactive: -6.67%,–
Cc1cc(C)n(-c2nc3ccccc3nc2N2CCN(S(=O)(=O)c3cccc(C#N)c3)CC2)n1,inactive: 9.88%,–
COc1ccc(C(=O)c2cccc(C(=O)c3ccc(OC)c(C)c3)c2)cc1C,inactive: -3.59%,–
Cc1cc(NC(=O)CSc2nnc(Nc3ccccc3F)s2)no1,inactive: -17%,–
O=C(NCc1cccnc1)c1ccc2sc([C@H]3C[C@H](O)[C@@H](CO)O3)nc2c1,inactive: 0.269%,–
COc1ccc(NC(=O)C2Cc3c(-c4ccc(NC(C)=O)cc4)ccnc3O2)cn1 (stereo unspecified),inactive: -1.93%,–
NS(=O)(=O)c1ccc(Sc2ccc3ccccc3c2)nc1,inactive: 22.7%,–
O=C(COC(=O)COc1ccccc1)NC1CCS(=O)(=O)C1 (stereo unspecified),inactive: -14.9%,–
COc1ccccc1N1CCN(C(=O)CCCn2nc(C)c([N+](=O)[O-])c2C)CC1,inactive: 4.93%,–
COc1ccc(C2CC(c3cccs3)=NN2S(C)(=O)=O)cc1 (stereo unspecified),inactive: 9.54%,–
Cc1ccc(C)c(OCCC(=O)OCC(=O)Nc2cc(S(=O)(=O)N3CCCCC3)ccc2C)c1,inactive: -3.98%,–
COc1cccc(CN2CCNC(=O)C2CC(=O)NCCCn2ccnc2)c1 (stereo unspecified),inactive: 11.1%,–
COc1cccc(CNC(=O)N2CCN(c3ccccc3C)CC2)c1,inactive: 28.5%,–
O=C(CCS(=O)(=O)c1ccc(Cl)cc1)Nc1ccccc1Br,inactive: 2.35%,–
CC(C)CNC(=S)N1CCN(Cc2ccc3c(c2)OCO3)CC1,inactive: 5.55%,–
Cc1cccc(NC(=O)[C@H](Cc2ccccc2)NC(=O)OCc2ccccc2)c1,inactive: 2.64%,–

Compound,growth rescue (activation),Potency
COC(=O)/C(=C/c1cccc([N+](=O)[O-])c1)NC(=O)c1ccc(OC)cc1,inactive: 16.7%,–
Cc1ccc(CNC(=O)CCNC(=O)c2ccc([N+](=O)[O-])cc2)cc1,inactive: 27.4%,–
CN(CCC#N)C(=O)COC(=O)C1c2ccccc2Oc2ccccc21,inactive: 4.83%,–
CCOc1ccc2[nH]c3c(=O)n(CCC4=CCCCC4)cnc3c2c1,inactive: 17.4%,–
Fc1ccc(Oc2cnns2)cc1,inactive: 2.07%,–
CC(C)NC(=O)C1(C)CCN1C(=O)c1ccc(F)c(Cl)c1 (stereo unspecified),inactive: 5.78%,–
O=C(Nn1c(-c2ccncc2)nc2ccccc2c1=O)c1ccccc1Br,inactive: -0.755%,–
COc1cc2cc(CN(Cc3cccs3)C(=S)Nc3ccccc3)c(=O)[nH]c2cc1OC,inactive: 23.2%,–
CCNC(=S)N/N=C(\C)c1ccc(N2CCOCC2)cc1,inactive: 6.75%,–
CSCCC(NC(=O)c1cccc(C)c1)C(=O)O (stereo unspecified),inactive: 6.93%,–
O=c1nccc(N/N=C/c2cccc(O)c2)[nH]1,inactive: 18.5%,–
Cc1nn(CCO)c(N)c1C1(O)C(=O)Nc2c(Cl)cc(Cl)cc21 (stereo unspecified),inactive: 10.5%,–
Cc1nn(-c2ccccc2)c(C)c1C=O,inactive: 0.35%,–
COc1ccc(OC)c(C(=O)Cn2cnc3ccccc3c2=O)c1,inactive: 20.1%,–
OC(COCc1ccccc1)CN1CCc2ccccc2C1 (stereo unspecified),inactive: -5.68%,–
Cc1ccc2occ(C3NC(C(=O)O)CS3)c(=O)c2c1 (stereo unspecified),inactive: 13.9%,–
O=C(COC(=O)COc1ccccc1)Nc1ccc(S(=O)(=O)N2CCOCC2)cc1,inactive: -3.03%,–
Cn1ncc2c(NNC(=O)Cc3ccccc3)ncnc21,inactive: -2.21%,–
CC(=O)Nc1cccc(-c2ccnc3c2CC(C(=O)NCc2cccs2)O3)c1 (stereo unspecified),inactive: 0.856%,–
Cc1ccc(NC(=O)CCn2c(=S)oc3ccccc32)cc1F,inactive: 8.06%,–
Cc1nn(-c2ccccc2)c(C)c1/C=N/NC(=O)CSc1nnc(SCc2cccc3ccccc23)s1,inactive: 8.22%,–
COCCn1nnnc1CN1CCN(C(=O)c2ccco2)CC1,inactive: 7.66%,–

Compound,growth rescue (activation),Potency
O=C1CN(S(=O)(=O)c2ccc(Cl)cc2)c2ccccc2N1,inactive: -1.09%,–
CCc1nc2ccc(C(=O)N3CCN(C(C)=O)CC3)cn2c1N(CC)C(C)=O,inactive: 8.14%,–
CCc1nc2ccc(C(=O)Nc3ccc(NC(C)=O)cc3)cn2c1N(C)C(=O)Cc1ccccc1,inactive: -10.5%,–
N#CC1=C(S)N(c2ccc(F)cc2)C2(CCCCC2)NC1=O,inactive: -1.21%,–
NC1=NS(=O)(=O)NC1c1ccc(F)cc1 (stereo unspecified),inactive: -12%,–
CCOc1ccc(CNC(=O)c2ccc3c(c2)N(Cc2ccccc2)CCS3)cc1,inactive: -8.99%,–
COc1ccc(S(=O)(=O)Nc2ccccc2C(=O)NC(C)C)cc1OC,inactive: 6.69%,–
Cc1nc(CCNC(=O)CC2C(=O)NCCN2Cc2ccccc2F)sc1C (stereo unspecified),inactive: 32.4%,–
NS(=O)(=O)c1ccc(NC(=O)CSc2n[nH]c(=O)n2Cc2ccccc2)cc1,inactive: 2.1%,–
COc1ccc(S(=O)(=O)NCc2ccc(F)cc2)cc1OC,inactive: 7.68%,–
O=S(=O)(Nc1ccc(-n2cnnn2)cc1)c1ccc(Cl)s1,inactive: 19.1%,–
CCOC(=O)c1cnc(SCC(=O)NNC(=O)c2ccco2)nc1N,inactive: 21.3%,–
O=C(Cn1ncc2c(Cl)cccc21)NCc1cccc(F)c1,inactive: 4.64%,–
O=C(COC(=O)c1ccc2ccccc2n1)Nc1ccccc1Br,inactive: 3.77%,–
CC1(C(=O)NS(=O)(=O)C2CC2)CCCN(C(=O)c2cc3ccccc3s2)C1 (stereo unspecified),inactive: -1.58%,–
COc1ccc(N(CC(=O)NCCc2ccc(Cl)cc2)S(=O)(=O)c2c(C)[nH]c(=O)[nH]c2=O)cc1,inactive: 8.06%,–
CC1(C(=O)NS(=O)(=O)C2CC2)CCN(C(=O)COCc2ccccc2)C1 (stereo unspecified),inactive: 6.06%,–
O=C(CSc1cn[nH]n1)Nc1cccc(C(F)(F)F)c1,inactive: -6.29%,–
Cc1cccc(C)c1NC(=O)C1(N2C(=O)CC2c2ccccc2)CCCCC1 (stereo unspecified),inactive: -8.89%,–
Cc1cccn2cc(-c3ccc4c(c3)NC(=O)CO4)nc12,inactive: -17.4%,–
CC1CC(C)CN(C(=O)COC(=O)CN2C(=O)c3ccccc3C2=O)C1 (stereo unspecified),inactive: 1.67%,–
COCCN(C(=O)CNC(=O)c1ccco1)C(C(=O)NC1CCCC1)c1cccc(OC)c1 (stereo unspecified),inactive: 11.9%,–

Compound,growth rescue (activation),Potency
COC(=O)c1ccc(Nc2nc3ccc(C)cc3n3cnnc23)cc1,inactive: 3.17%,–
CC1CCCC(C)N1NC(=O)c1cccc(S(=O)(=O)N2CCc3ccccc32)c1 (stereo unspecified),inactive: 6.64%,–
O=C(N/N=C/c1ccc(F)cc1)c1cc[n+]([O-])cc1,inactive: -4.02%,–
O=C(CSc1nnc(-c2ccco2)c(-c2ccco2)n1)c1ccccc1,inactive: -2.09%,–
CCOc1ccccc1N(C)C(=O)c1nn(-c2ccc(OC)cc2OC)c(=O)c2ccccc12,inactive: -3.43%,–
O=C(CSc1nc2nc(-c3cccs3)cc(C(F)(F)F)c2c(=O)[nH]1)Nc1c(F)c(F)c(F)c(F)c1F,inactive: 5.26%,–
O=C(COC(=O)CC1CC2CCC1C2)NCc1ccc(F)cc1 (stereo unspecified),inactive: 6.92%,–
CC1Cc2ccccc2N1S(=O)(=O)c1cccc(C(=O)NC2CC2)c1 (stereo unspecified),inactive: -9.45%,–
CNCCCOc1cc(C)cc(C)c1C,inactive: -2.45%,–
COc1cc(C)ccc1S(=O)(=O)NC(=O)C1(C)CCN1C(=O)c1ccc(C(F)(F)F)nc1C (stereo unspecified),inactive: 7.52%,–
CCOC(=O)c1c(NC(C)=O)c2c3c(sc2n1Cc1cc(C)ccc1C)CCCC3,inactive: 4%,–
COc1ccc(N=C2NC(=O)C(CC(=O)NCCc3ccc(OC)c(OC)c3)S2)cc1 (stereo unspecified),inactive: 12.5%,–
COc1ccc(CNC(=O)COC(=O)Cc2ccsc2)cc1,inactive: 17.2%,–
CCc1nc(SCC(=O)Nc2ccc(N(C)C)cc2)n[nH]1,inactive: 32.2%,–
O=C(COc1ccc(S(=O)(=O)N2CCOCC2)cc1Cl)N1CCCC1,inactive: 13.8%,–
CCc1ccccc1NC(=O)Nc1cccn(Cc2ccc(F)cc2)c1=O,inactive: 1.51%,–
c1ccc(-c2cn3nc(-c4ccccc4)sc3n2)cc1,inactive: 34.2%,–
CCn1c(SCC(=O)N2CCN(C(=O)c3ccco3)CC2)nnc1C(C)C,inactive: 3.58%,–
COc1cc(OC)cc(C(=O)N[C@H](C(=O)OCC(=O)N2CCc3ccccc32)C(C)C)c1,inactive: 2.53%,–
COc1ccc(CCN2C(=O)CS/C2=N\NC(=O)c2ccc(C(C)(C)C)cc2)cc1OC,inactive: -1.1%,–
CCCCCSc1nnc2c(n1)OC(c1cccn1C)N(C(C)=O)c1ccccc1-2 (stereo unspecified),inactive: 17.4%,–
O=C(Nc1cc(S(=O)(=O)N2CCOCC2)ccc1N1CCOCC1)c1ccccc1Cl,inactive: 4.62%,–

Compound,growth rescue (activation),Potency
CC(C)c1cc(=O)n2[nH]c(SCc3ccccc3)nc2n1,inactive: 3.74%,–
CN(Cc1ccc2ccccc2c1)C(=O)c1ccc(C(F)(F)F)cc1,inactive: 5.44%,–
Cc1cccn2cc(CNC(=O)CC3CCCC3)nc12,inactive: -26.4%,–
O=C(c1cc2cc3ccc(Cl)cc3nc2o1)N1CCN(Cc2ccc3c(c2)OCO3)CC1,inactive: -14%,–
O=C(CSc1nnc(-c2ccccc2)n1-c1ccc(Cl)cc1)NC1CCS(=O)(=O)C1 (stereo unspecified),inactive: -5.59%,–
O=C(Nc1c(Cl)cccc1Cl)C1CCN(C(=O)c2cccs2)CC1,inactive: -2.31%,–
Cc1sc(NC(=O)CCCC(=O)O)c(C(N)=O)c1-c1ccccc1,inactive: 11.3%,–
COc1cc(OC)c(NC(=O)c2cncn2-c2ccc(F)cc2)cc1Cl,inactive: 2.67%,–
C=CCOc1cccc(/C=C2\C(=O)N(Cc3ccc(C)cc3)C(C)=C2C(=O)OC)c1,inactive: -2.7%,–
COc1ccc(CCNC(=O)c2ccc(CNS(=O)(=O)c3cccc(Cl)c3)cc2)cc1OC,inactive: 11.5%,–
CCCn1nc(C(=O)OCC(=O)Nc2ccc(C)cc2)c2ccccc2c1=O,inactive: -2.97%,–
CC(C)[C@H](NC(=O)c1ccccc1)C(=O)OCC(=O)Nc1ccc(S(=O)(=O)N2CCOCC2)cc1,inactive: 5.54%,–
C1=CCC(CN2CCNCC2)CC1 (stereo unspecified),inactive: -10.3%,–
Oc1cccc(/C=N/Nc2ncnc3c2ncn3Cc2ccccc2)c1,inactive: 7.68%,–
Cn1cccc1C(=O)OCC(=O)Nc1ccc2c(c1)OCCO2,inactive: 10.3%,–
S=C(NCc1ccc(Cl)cc1)Nc1ccccc1,–,active: 12.6 µM
COc1ccc(Cl)cc1NC(=O)CN(C)CC(=O)Nc1ccc(S(N)(=O)=O)cc1,inactive: -1.21%,–
CC1CCN(c2nc3c(=O)[nH]c(N)nc3n2[C@@H]2O[C@H](CO)[C@@H](O)[C@H]2O)CC1,inactive: -14.6%,–
